“And” between values parts separate entries of the source, which are not always exact repeats. Identical values can stand only once.
Tests used:
[1] = biological target: T1, human serum albumin (HSA) (Homo sapiens, UniProt P02768); experiment: DSC thermograms of HSA with ligand (single-ligand titration); format: binding; settings: for Tm / ΔG37^O / ΔHcal / ΔScal: thermal denaturation of HSA
T1 construct: purchased Sigma Aldrich (St. Louis, Mo.)
Protocol: Chemicals and reagents: Plasma and highly pure plasma proteins are sourced from commercial suppliers. Standard reagents are sourced from commercial suppliers. Samples are prepared in standard phosphate-buffered saline (PBS) buffer. In some examples, human plasma and serum albumin were purchased from Sigma Aldrich (St. Louis, Mo.) and received as lyophilized powder. Plasma was product number: P9523, lot number: SLBT0202. […] In vivo, the standard state of HSA is most certainly bound to some extent by fatty acids. Plasma and HSA stock solutions were prepared by re-suspending the appropriate amount of powder in buffer. Samples were prepared by diluting stock solutions to a final concentration of 1.5-2.0 mg/mL.
Protein concentration was approximately 2 mg/ml.
In a DSC melting experiment, the supplemental power supplied to the sample cell (in μW) necessary to keep the sample temperature equal to the reference temperature is continually monitored. […] Supplemental power is directly related to the molar heat capacity at constant pressure, ΔCp. Curves of ΔCp versus T provide an evaluation of the thermodynamic enthalpy. To enable direct comparisons in some cases, power (μW) versus T plots (instead of ΔCp versus T curves) were used for the following reason.
Analysis of DSC data was performed using the Nanoanalyze software package, version 3.7.5, provided by T.A. Instruments. […]
From the thermograms, semi-quantitative evaluations of the thermodynamic parameters ΔHcal, ΔScal and ΔGcal(37° C.) were obtained at each ligand concentration.
These curves were constructed from titrations of DM1 with HSA. The Tm and ΔGcal(37° C.) were evaluated. The values were normalized against standard HSA and plotted versus ligand concentration to provide the dose curves in FIG. 20A (Tm) and FIG. 20B (ΔGcal(37° C.)).
Natural HSA samples were prepared at pH 6.0 and pH 8.0 and examined by DSC. […] From DSC melting curves thermodynamic parameters for HSA/ligand mixtures were evaluated.

human plasma = experiment: DSC thermograms of plasma with ligand; format: binding; settings: 100 μM ligand (FIG. 10A)
biotinylated HSA (HSAB) = biotinylated HSA (HSAB) (Homo sapiens, UniProt P02768); experiment: DSC thermograms of biotinylated HSA (HSAB) with ligands; format: binding
[2] = biological target: T1, human serum albumin (HSA); experiment: Two-ligand (NAP + BCG) binding to standard HSA by DSC

T1 sequence (P02768 25-609): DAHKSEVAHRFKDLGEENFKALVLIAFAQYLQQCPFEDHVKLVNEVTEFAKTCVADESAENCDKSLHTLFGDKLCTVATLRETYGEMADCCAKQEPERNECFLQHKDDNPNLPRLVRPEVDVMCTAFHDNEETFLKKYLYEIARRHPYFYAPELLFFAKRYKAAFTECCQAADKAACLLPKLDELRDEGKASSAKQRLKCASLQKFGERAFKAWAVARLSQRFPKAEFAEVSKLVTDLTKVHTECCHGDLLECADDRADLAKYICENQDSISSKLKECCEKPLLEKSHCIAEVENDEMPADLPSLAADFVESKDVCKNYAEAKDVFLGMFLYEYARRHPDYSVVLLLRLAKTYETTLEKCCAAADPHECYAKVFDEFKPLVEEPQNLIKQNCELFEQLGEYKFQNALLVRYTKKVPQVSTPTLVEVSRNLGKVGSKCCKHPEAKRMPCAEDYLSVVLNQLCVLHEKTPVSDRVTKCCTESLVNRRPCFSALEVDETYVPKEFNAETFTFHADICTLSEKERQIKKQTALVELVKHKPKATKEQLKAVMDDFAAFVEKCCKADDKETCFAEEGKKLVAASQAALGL
Chain of biotinylated HSA (HSAB) (P02768 25-609): as above

COc1ccc2cc([C@H](C)C(=O)O)ccc2c1 [NAP, naproxen]
ΔHcal of HSA/ligand ([1]; HSA, 100 μM ligand (text, FIG. 10B)): 181.7 kcal/mol and 181 kcal/mol | Implied number of sites ([1]; from dose response curves with HSA): 6 | Tm ([1]; ligand 1 μM): 63.2 °C | ΔG37^O ([1]; ligand 1 μM): 14.36 kcal/mol | ΔHcal ([1]; ligand 1 μM): 184.38 kcal/mol | ΔScal ([1]; ligand 1 μM): 548.18 cal/molK | Tm ([1]; ligand 10 μM): 63.5 °C | ΔG37^O ([1]; ligand 10 μM): 16.40 kcal/mol | ΔHcal ([1]; ligand 10 μM): 208.65 kcal/mol | ΔScal ([1]; ligand 10 μM): 619.86 cal/molK | Tm ([1]; ligand 25 μM): 64.2 °C | ΔG37^O ([1]; ligand 25 μM): 17.02 kcal/mol | ΔHcal ([1]; ligand 25 μM): 211.07 kcal/mol | ΔScal ([1]; ligand 25 μM): 625.67 cal/molK | Tm ([1]; ligand 50 μM): 66.1 °C | ΔG37^O ([1]; ligand 50 μM): 17.86 kcal/mol | ΔHcal ([1]; ligand 50 μM): 208.56 kcal/mol | ΔScal ([1]; ligand 50 μM): 614.86 cal/molK | Tm ([1]; ligand 75 μM): 66.8 °C | ΔG37^O ([1]; ligand 75 μM): 17.90 kcal/mol | ΔHcal ([1]; ligand 75 μM): 204.50 kcal/mol | ΔScal ([1]; ligand 75 μM): 601.63 cal/molK | Tm ([1]; ligand 100 μM): 68.2 °C | ΔG37^O ([1]; ligand 100 μM): 17.60 kcal/mol | ΔHcal ([1]; ligand 100 μM): 192.45 kcal/mol | ΔScal ([1]; ligand 100 μM): 563.76 cal/molK | Tm ([1]; ligand 150 μM): 68.7 °C | ΔG37^O ([1]; ligand 150 μM): 17.96 kcal/mol | ΔHcal ([1]; ligand 150 μM): 193.64 kcal/mol | ΔScal ([1]; ligand 150 μM): 566.45 cal/molK | Tm ([1]; ligand 175 μM): 68.8 °C | ΔG37^O ([1]; ligand 175 μM): 17.90 kcal/mol | ΔHcal ([1]; ligand 175 μM): 192.52 kcal/mol | ΔScal ([1]; ligand 175 μM): 563.00 cal/molK | Tm ([1]; ligand 200 μM): 68.9 °C | ΔG37^O ([1]; ligand 200 μM): 17.92 kcal/mol | ΔHcal ([1]; ligand 200 μM): 192.04 kcal/mol | ΔScal ([1]; ligand 200 μM): 561.41 cal/molK | enthalpy (ΔHcal) of plasma with ligand (human plasma): 149 kcal/mol | Binding Chemical Potentials (ΔG^O37) (biotinylated HSA (HSAB); HSAB 1:1 with 50 μM BCG, [NAP] 25 μM): 21.35 kcal/mol | Binding Chemical Potentials (ΔG^O37) (biotinylated HSA (HSAB); HSAB 1:1 with 50 μM BCG, [NAP] 75 μM): 21.92 kcal/mol | Binding Chemical Potentials (ΔG^O37) (biotinylated HSA (HSAB); HSAB 1:1 with 50 μM BCG, [NAP] 150 μM): 23.32 kcal/mol | Binding Chemical Potentials (ΔG^O37) (biotinylated HSA (HSAB); HSAB 1:1 with 50 μM NAP, [BCG] 0 μM): 20.84 kcal/mol | Binding Chemical Potentials (ΔG^O37) (biotinylated HSA (HSAB); HSAB 1:5 with 50 μM BCG, [NAP] 25 μM): 23.10 kcal/mol | Binding Chemical Potentials (ΔG^O37) (biotinylated HSA (HSAB); HSAB 1:5 with 50 μM BCG, [NAP] 75 μM): 25.45 kcal/mol | Binding Chemical Potentials (ΔG^O37) (biotinylated HSA (HSAB); HSAB 1:5 with 50 μM BCG, [NAP] 150 μM): 26.36 kcal/mol | Binding Chemical Potentials (ΔG^O37) (biotinylated HSA (HSAB); HSAB 1:5 with 50 μM NAP, [BCG] 0 μM): 23.97 kcal/mol | Binding Chemical Potentials (ΔG^O37) (biotinylated HSA (HSAB); HSAB 1:10 with 50 μM BCG, [NAP] 25 μM): 23.00 kcal/mol | Binding Chemical Potentials (ΔG^O37) (biotinylated HSA (HSAB); HSAB 1:10 with 50 μM BCG, [NAP] 75 μM): 24.03 kcal/mol | Binding Chemical Potentials (ΔG^O37) (biotinylated HSA (HSAB); HSAB 1:10 with 50 μM BCG, [NAP] 150 μM): 25.93 kcal/mol | Binding Chemical Potentials (ΔG^O37) (biotinylated HSA (HSAB); HSAB 1:10 with 50 μM NAP, [BCG] 0 μM): 23.15 kcal/mol | Binding Chemical Potentials (ΔG^O37) ([2]; HSA25BCG (pre-bound 25 μM BCG), [NAP] 25 μM): 15.65 kcal/mol | Binding Chemical Potentials (ΔG^O37) ([2]; HSA25BCG (pre-bound 25 μM BCG), [NAP] 75 μM): 17.81 kcal/mol | Binding Chemical Potentials (ΔG^O37) ([2]; HSA25BCG (pre-bound 25 μM BCG), [NAP] 150 μM): 18.78 kcal/mol | Binding Chemical Potentials (ΔG^O37) ([2]; HSA25NAP (HSA + 25 μM NAP), [BCG] 0 μM): 16.45 kcal/mol | Binding Chemical Potentials (ΔG^O37) ([2]; HSA50BCG (pre-bound 50 μM BCG), [NAP] 25 μM): 17.12 kcal/mol | Binding Chemical Potentials (ΔG^O37) ([2]; HSA50BCG (pre-bound 50 μM BCG), [NAP] 75 μM): 17.62 kcal/mol | Binding Chemical Potentials (ΔG^O37) ([2]; HSA50BCG (pre-bound 50 μM BCG), [NAP] 150 μM): 18.96 kcal/mol | Binding Chemical Potentials (ΔG^O37) ([2]; HSA50NAP (HSA + 50 μM NAP), [BCG] 0 μM): 16.92 kcal/mol | Binding Chemical Potentials (ΔG^O37) ([2]; HSA75BCG (pre-bound 75 μM BCG), [NAP] 25 μM): 16.50 kcal/mol | Binding Chemical Potentials (ΔG^O37) ([2]; HSA75BCG (pre-bound 75 μM BCG), [NAP] 75 μM): 18.23 kcal/mol | Binding Chemical Potentials (ΔG^O37) ([2]; HSA75BCG (pre-bound 75 μM BCG), [NAP] 150 μM): 19.38 kcal/mol | Binding Chemical Potentials (ΔG^O37) ([2]; HSA75NAP (HSA + 75 μM NAP), [BCG] 0 μM): 17.38 kcal/mol | Binding Chemical Potentials (ΔG^O37) ([2]; WT HSA with 50 μM BCG, [NAP] 25 μM): 17.12 kcal/mol | Binding Chemical Potentials (ΔG^O37) ([2]; WT HSA with 50 μM BCG, [NAP] 75 μM): 17.62 kcal/mol | Binding Chemical Potentials (ΔG^O37) ([2]; WT HSA with 50 μM BCG, [NAP] 150 μM): 18.96 kcal/mol | Binding Chemical Potentials (ΔG^O37) ([2]; WT HSA with 50 μM NAP, [BCG] 0 μM): 16.92 kcal/mol

Reference: patent US20220091128A1, “SYSTEM AND METHOD FOR LIGAND THERMAL ANALYSIS” (Portland State University, priority 2019, published 2022)
